Reference: patent US20240252520A1 (priority 2023, published 2024)

System: THP-1 monocyte derived macrophages
Experiment: Nicotinic and muscarinic receptor gene expression, THP-1 monocyte derived macrophages
Settings: M2 cells, 48 hours

## COP(=O)(OC)C(O)C(Cl)(Cl)Cl (stereo not shown) [metrifonate, (2,2,2-trichloro-1-hydroxyethyl) dimethylphosphonate]
  CHRM3, CHRNA3 and CHRNA7 expression: down-regulated
